Experimental data: PubChem BioAssay AID1458 (National Center for Advancing Translational Sciences (NCATS), 2008)
“And” between values parts separate entries of the source, which are not always exact repeats. Equal entries are not always repeated. Hit rate of the full screen: of about 210,000 compounds, about 5,900 (2.8%) were called active. The inconclusive results got no clear call from the source; some entries with a clear call stand among them for comparison. Calls come from the whole dose curve; as a rule, active = well fitted activation curve with a large enough effect; inconclusive = small, poorly fitted or top-dose-only effect; inactive = no such curve, though single readings can be large or run the other way. Potencies of inconclusive entries are doubtful fits and often do not repeat.

experiment: qHTS Assay for Enhancers of SMN2 Splice Variant Expression; details: HEK293 SMN2-luciferase splicing reporter, luminescence, 30-36 h; activity change, positive = activation: at 46.1 µM (top of the series); note: nearly all actives have a fitted effect of over 55% in size; for activity change, positive = activation: % of control where 0% means no effect
Summary of the method: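 qHTS luciferase splicing reporter: luminescence rises when SMN2 exon 7 is included in transfected HEK293 cells. Compound exposure lasted 30-36 h at 37C, with 4.5 mM final sodium butyrate as control, followed by a ONE-Glo read.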
Potency is the fitted concentration of half-maximal effect; tags give direction and shape of the fitted curve.

Question: Which Potency does the source give for `Cc1ccc(NC(=O)c2cc(=O)c3ccccc3o2)cc1` here?
Answer: The Potency was inconclusive: 7.94 µM [activator, full curve].

Question: For `COc1cccc(CNCCSc2nnnn2C)c1OCc1ccccc1`, which Potency is on record?
Answer: The Potency was inconclusive: 35.5 µM [activator, single point].

Question: For `CCOC(=O)c1c(C)c(C(=O)Nc2ccc3c(c2)OCCO3)c(C)n1C`, which Potency is on record?
Answer: Its Potency is inconclusive: 14.1 µM [activator, partial curve].

Question: Which Potency does the source give for `CCN1C(=O)/C(=C/C=C2/SCCN2C)SC1=S` here?
Answer: The Potency was inconclusive: 2.82 µM [activator, partial curve, poor fit].

Question: With `COc1ccc(-c2cc(=O)c3ccccc3o2)cc1OC` as the compound, how does the Potency read?
Answer: The Potency was inconclusive: 10 µM [activator, partial curve].

Question: Which Potency does the source give for `CC(C)=CC(=O)Nc1ccc2c(c1)OCO2` here?
Answer: The Potency was active: 11.2 µM.

Question: With `N/C(=N\OC(=O)c1ccc2ccccc2c1)c1ccccn1` as the compound, how does the Potency read?
Answer: The Potency was inconclusive: 5.62 µM [activator, single point].

Question: For `Cc1ccc(Nc2c(-c3ccc(N(C)C)cc3)nc3nc[nH]n23)cc1`, which Potency is on record?
Answer: Its Potency is inconclusive: 20 µM [activator, partial curve, poor fit].

Question: With `CCN1CCN(c2cc3c(nn2)Oc2ccccc2N3C)CC1` as the compound, how does the Potency read?
Answer: The Potency was active: 15.8 µM.

Question: With `COc1ccc(NC(=O)c2oc3ccccc3c2NC(=O)C2CCCO2)cc1OC` (stereo not given) as the compound, how does the Potency read?
Answer: Its Potency is inconclusive: 14.1 µM [activator, single point].

Question: For `O=[N+]([O-])c1ccccc1NCCOc1ccccc1`, which Potency is on record?
Answer: The Potency was inconclusive: 25.1 µM [activator, single point].

Question: Which Potency does the source give for `C/C(=N\NC(=O)c1cccc(N2CCCC2=O)c1)c1ccc(N)cc1` here?
Answer: Its Potency is inconclusive: 20 µM [activator, single point].

Question: For `O=C(Nc1sc2c(c1C(=O)O)CCC2)c1ccc(F)cc1`, which “activity change, positive = activation” value is on record?
Answer: The value was inactive: -9.83%.

Question: With `O=C(COc1ccccc1)n1nc(-c2ccc(Cl)cc2)nc1NCc1ccco1` as the compound, how does the Potency read?
Answer: Its Potency is active: 15.8 µM.

Question: Which Potency does the source give for `N#C/C(=C\c1ccc(O)c(O)c1)C(=O)NCc1ccccc1` here?
Answer: The Potency was inconclusive: 35.5 µM [activator, single point] and inconclusive: 7.94 µM [activator, partial curve] and inconclusive: 17.8 µM [activator, partial curve].

Question: Which Potency does the source give for `CCCn1nc(C(=O)Nc2ccc3nc(C)sc3c2)c2ccccc2c1=O` here?
Answer: Its Potency is inconclusive: 5.62 µM [activator, single point].

Question: For `C/C(CC(=O)Nc1ccc(N(C)C)cc1)=N\NC(=O)C(=O)NCc1ccccc1`, which Potency is on record?
Answer: Its Potency is inconclusive: 20 µM [activator, single point].

Question: With `C/C(=N\Nc1ccccn1)c1ccc(C(C)C)cc1` as the compound, how does the Potency read?
Answer: The Potency was inconclusive: 17.8 µM [activator, partial curve].

Question: For `CN(CCc1ccccn1)S(=O)(=O)c1ccc2c3c(cccc13)C(=O)N2`, which Potency is on record?
Answer: Its Potency is inconclusive: 0.251 µM [activator, full curve, poor fit].

Question: With `CN(C)c1ccnc(-c2cccc(NS(C)(=O)=O)c2)n1` as the compound, how does the Potency read?
Answer: Its Potency is inconclusive: 8.91 µM [activator, partial curve].

Question: For `COC(=O)Nc1ccc2c(c1)ncn2C1CCCCC1`, which “activity change, positive = activation” value is on record?
Answer: The value was inactive: 1.34%.

Question: For `O=c1[nH]c(Cc2ccccc2)nc2c1oc1ccccc12`, which “activity change, positive = activation” value is on record?
Answer: Its value is inactive: 2.94%.

Question: Which Potency does the source give for `Cc1cccc(OCCCC(=O)NC(C)C)c1` here?
Answer: Its Potency is inconclusive: 0.158 µM [activator, full curve, poor fit].

Question: Which Potency does the source give for `COC(=O)c1ccc(C(=O)OC)c(NC(=O)Nc2ccc3c(c2)OCO3)c1` here?
Answer: Its Potency is inconclusive: 11.2 µM [activator, partial curve, poor fit].

Question: Which “activity change, positive = activation” value does the source give for `CCOC(=O)c1c(C)c(C(=O)Nc2ccc3c(c2)OCO3)c(C)n1C` here?
Answer: The value was inactive: -28.5%.

Question: With `CN(C)c1ccc(N=Nc2ccccc2C(=O)OCC(=O)N2CCCC2)cc1` as the compound, how does the Potency read?
Answer: The Potency was inconclusive: 35.5 µM [activator, single point].

Question: With `O=C(NC1CCCCC1)C(=S)NC1CCCCC1` as the compound, how does the Potency read?
Answer: Its Potency is active: 14.1 µM.

Question: With `CCOC(=O)c1cnc2c(-c3ccccc3)cnn2c1C` as the compound, how does the Potency read?
Answer: The Potency was active: 11.2 µM.

Question: For `CCCn1c(SCc2nc3ccccc3s2)n[nH]c1=O`, which Potency is on record?
Answer: The Potency was inconclusive: 15.8 µM [activator, single point].

Question: With `COc1cccc(-c2cc(NCc3cccs3)ncn2)c1` as the compound, how does the Potency read?
Answer: The Potency was active: 8.91 µM.

Question: For `N/C(=N\OC(=O)COc1ccccc1)c1ccc(Cl)cc1`, which “activity change, positive = activation” value is on record?
Answer: The value was inactive: 20.8%.

Question: With `O=C1NC(=Nc2ccc3ccccc3c2)S/C1=C/c1ccco1` as the compound, how does the Potency read?
Answer: The Potency was inconclusive: 20 µM [activator, single point].

Question: For `CN(/N=C/c1ccncc1)C1=NS(=O)(=O)c2ccccc21`, which Potency is on record?
Answer: The Potency was inconclusive: 12.6 µM [activator, single point].

Question: For `O=C(Nc1ccc2c(c1)oc1ccccc12)N1CCOCC1`, which Potency is on record?
Answer: Its Potency is inconclusive: 35.5 µM [activator, single point].

Question: For `Cc1c(C(=O)NCCCN2CCCC2=O)oc2ccccc12`, which Potency is on record?
Answer: The Potency was inconclusive: 35.5 µM [activator, single point].

Question: Which Potency does the source give for `CC1CCCCN1CCNC(=O)CC1Oc2ccccc2NC1=O` (stereo not given) here?
Answer: The Potency was inconclusive: 25.1 µM [activator, single point].

Question: With `CC(Sc1cnc2ccccc2n1)C(=O)O` (stereo not given) as the compound, how does the Potency read?
Answer: The Potency was inconclusive: 0.01 µM [activator, full curve, poor fit].

Question: For `Cn1nnnc1SCc1nc2ccccc2s1`, which Potency is on record?
Answer: Its Potency is inconclusive: 20 µM [activator, single point].

Question: Which Potency does the source give for `Cc1ccc(NC2=NCC(=O)N2Cc2cccs2)cc1C` here?
Answer: The Potency was inconclusive: 35.5 µM [activator, single point].

Question: For `Cc1cccc(C(=O)NNC(=O)c2ccc(F)cc2)c1`, which Potency is on record?
Answer: Its Potency is inconclusive: 22.4 µM [activator, partial curve, poor fit].

Question: With `CCOc1ccc(C(=O)c2ccc(OCC)c(N)c2)cc1N` as the compound, how does the Potency read?
Answer: Its Potency is inconclusive: 11.2 µM [activator, partial curve].

Question: Which Potency does the source give for `Cc1ccc(-c2cc(C(=O)NCc3ccco3)no2)cc1` here?
Answer: The Potency was inconclusive: 25.1 µM [activator, single point].

Question: With `N#Cc1ccccc1NC(=O)Nc1cccc(Cl)c1` as the compound, how does the “activity change, positive = activation” value read?
Answer: Its value is inactive: -8.73%.

Question: For `CCOC(=O)c1c(NC(=S)Nc2ccc(Cl)cc2)sc(C)c1C`, which “activity change, positive = activation” value is on record?
Answer: Its value is inactive: 5.9%.

Question: With `O=C(O)CSc1nnc(-c2ccncc2)n1CCc1ccccc1` as the compound, how does the “activity change, positive = activation” value read?
Answer: Its value is inactive: 20%.

Question: Which Potency does the source give for `Cc1nc(N)sc1N=Nc1ccc(Br)cc1` here?
Answer: Its Potency is inconclusive: 22.4 µM [activator, single point].

Question: Which Potency does the source give for `CCCCNC(=O)C(Cc1ccccc1)NS(=O)(=O)c1ccc2c(c1)c(=O)n(C)c(=O)n2C` (stereo not given) here?
Answer: Its Potency is “inactive”.

Question: Which “activity change, positive = activation” value does the source give for `CCn1c(=N)c(C(=O)NCc2ccccc2)cc2c(=O)n3cc(C)ccc3nc21` here?
Answer: The value was inactive: 14.3%.

Question: With `CCOc1ccc(C(=O)N2CCN(Cc3ccccc3)CC2)cc1` as the compound, how does the “activity change, positive = activation” value read?
Answer: The value was inactive: -8.51%.

Question: With `CC(C)c1ccc2oc(-c3ccc(NC(=O)c4ncn[nH]4)cc3)nc2c1` as the compound, how does the Potency read?
Answer: The Potency was inconclusive: 8.91 µM [activator, partial curve, poor fit].

Question: For `CSc1ccccc1NC(=O)c1cnc2scc(C)n2c1=O`, which Potency is on record?
Answer: Its Potency is inconclusive: 35.5 µM [activator, single point].

Question: For `CNC(=O)CSc1nccn1Cc1ccc(Cl)cc1`, which Potency is on record?
Answer: Its Potency is inconclusive: 20 µM [activator, partial curve, poor fit].

Question: Which Potency does the source give for `COC(=O)/C(C#N)=C1/C=Cc2ccccc2N1C` here?
Answer: The Potency was inconclusive: 0.141 µM [activator, partial curve, poor fit].

Question: For `CCCCOc1cccc(C(=O)Nc2cccc(-c3nc4ncccc4o3)c2C)c1`, which “activity change, positive = activation” value is on record?
Answer: Its value is inactive: -34.2%.

Question: With `C/C(=N/NC(=O)c1cccc(C)c1)c1c(O)cc(C)oc1=O` as the compound, how does the Potency read?
Answer: The Potency was inconclusive: 31.6 µM [activator, single point].
